Measurements taken from PubChem BioAssay AID1508624 (National Center for Advancing Translational Sciences (NCATS), 2021).
Out of some 48,000 compounds screened, about 120 (0.25%) were called active. Roughly 4% stayed inconclusive and do not appear here. Calls follow the shape of the dose curve; as a rule, active = well fitted activation curve with a large enough effect; inconclusive = small, poorly fitted or top-dose-only effect, or another doubt; inactive = no such curve, though single readings can be large or run the other way. The list shows a part of the results.

Assay: Primary qHTS for Identification of Small Molecule Activators of Huntingtin-Antisense Promoter Activity; also: nearly all actives have a fitted effect of over 55% in size
Details: HEK293 HTT-AS promoter firefly luciferase reporter, 24 h; series mostly up to 57.5 µM; activity change, positive = activation: at the top concentration
Summary of the method: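 HEK293 Fluc reporter, 2,500 cells/well, 24 h pre-culture; cpds up to 57.5 uM final, 24 h 37 degrees C; Dual-Glo, 10 min RT; normalized vehicle = 0%, zero RLU = -100%.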

Activity change, positive = activation, inactive:
COc1ccc(N2CCN(C(=O)CCc3nnc4n(C)c(=O)c5sccc5n34)CC2)cc1 -8.41%, COc1c(N2CCNC(C)C2)c(F)cc2c(=O)c(C(=O)O)cn(C3CC3)c12 (stereo not drawn), COc1ccc(-n2c(=O)c3ccc(C(=O)NCc4ccc(C)cc4)cc3n(Cc3ccc(F)cc3Cl)c2=O)cc1 -12.2%, CC1(C)N=C(c2ccc(F)cc2)C(=O)N1CC(=O)Nc1ccccc1Cl -6.8%, Cc1ccc(Cn2c3ccccc3c3cnn(CC(=O)N4CCCCCC4)c(=O)c32)cc1 -18.2%, Cc1ccc(CN2C(=O)CC(c3ccc(Cl)cc3)c3c(C)nn(-c4nc(C)cc(C)n4)c32)cc1 (stereo not drawn) -37.6%, COc1ccc(-n2nc3c(c2NC(=O)C(=O)NCc2ccccc2)CSC3)cc1 -19.1%, COC(=O)c1cc2oc(C)cc2n1CC(=O)Nc1ccc(OC)c(OC)c1 -13.9%, COC(=O)c1ccc(NC(=O)CSc2nccn2Cc2ccc(Cl)cc2)cc1 -8.3%, CCOc1ccc(-n2c(=O)c3c(C)c(C)sc3n(Cc3c(F)cccc3Cl)c2=O)cc1 -1.3%, Cc1cc(O)c(C(c2ccccc2)N2CCN(c3ccccc3F)CC2)c(=O)n1Cc1ccco1 (stereo not drawn) 7.26%, CCOC(=O)[C@@](C)(N)Cc1ccc(O)c(O)c1 20.8%, CCC(=O)N1CCc2cc(Br)cc(S(=O)(=O)CCC(=O)NCc3ccc(C)cc3)c21 10.8%, COC(=O)c1sc(S(=O)(=O)N2CCN(c3ccc(OC)cc3)CC2)c(C(=O)OC)c1C -33.6%, COc1ccc(CNC(=O)C(=O)Nc2ccccc2OC)cc1 -15.8% [at 11.5 µM, percent change from vehicle, -100% = no light], COc1ccc(OC)c(NC(=O)CSc2nccn2-c2cc(C)cc(C)c2)c1 -24.5%, COc1cc(NC(=O)CN2C(=O)C(c3ccc(C)cc3)=NC23CCCCCC3)cc(OC)c1 -21.6%, CC(=O)Nc1c(C)nn(-c2ccccc2)c1N1CCC(C(=O)Nc2ccc(Cl)cc2C)CC1 11.8%, Cc1ccc(-c2nc3ccccc3[nH]2)cc1NC(=O)COc1ccc(Cl)cc1Cl -13.8%, O=C(c1ccccc1)c1ccc2n1CCC2C(=O)O (stereo not drawn), CCc1nnc(SC(CC)C(=O)NCCOC)c2cc3occc3n12 (stereo not drawn) -27.8%, CCc1cccc(NC(=O)Cn2c(=O)n(Cc3ccccc3)c(=O)c3c(C)c(C(=O)N(C)C)sc32)c1 -19.4%, CN1CCN(C(=O)c2cnn(-c3ccccc3)c2C2CCN(C(=O)OC(C)(C)C)CC2)CC1 -15.6%, CCOc1ccccc1N(C)C(=O)c1cc(S(=O)(=O)NCc2ccc(C)cc2)ccc1F -36.3%, Cc1cccc(NC(=O)CSc2nc(C)cc(C)c2C(=O)Nc2ccc(Cl)cc2)c1 -13.6%, Cc1ccc(C)c(NC(=O)Cn2cc(S(=O)(=O)N3CCCC3)c(S(=O)(=O)N3CCCC3)c2)c1 -2.97%, COc1ccc(Cl)cc1NC(=O)c1cc(=O)c2cc(C)cc(C)c2o1 8.77% [at 11.5 µM, percent change from vehicle, -100% = no light], CCc1nn2c(=O)cc(COC(=O)c3cccc(NC(=O)COc4ccccc4F)c3)nc2s1 -35.2%, CCc1ccc2c(c1)c(=O)c(S(=O)(=O)c1ccccc1)cn2CC(=O)Nc1cc(C)ccc1C -5.66%, COc1cc(NC(=O)CN(C)S(=O)(=O)c2ccc3c(c2)CCCC(=O)N3)cc(OC)c1OC -18.7%, CCC(=O)C1=C(c2cccc([N+](=O)[O-])c2)N(C(=O)CC)n2c(nnc2C2CCCCC2)S1 -18.6%, OCc1ccccc1O -1.16%, COc1ccc(-c2nc3ccccc3o2)cc1NC(=O)COc1c(C)cc(Cl)cc1Cl 28.3%, C=C1C(=O)OC(CCCCCCCC)C1C(=O)O (stereo not drawn) -47.9%, Cc1ccc(CCNC(=O)Cn2ncc3c(=O)oc4ccccc4c32)cc1 -15.9%, Cc1ccccc1-c1nc(CS(=O)(=O)CC(=O)Nc2c(C)cccc2C)c(C)o1 -38.7%, Cc1cccc(-c2nc3c4ccccc4n(CC(=O)Nc4cccc(F)c4)c(=O)n3n2)c1 21.9%, CCN(CC)CCCC(C)Nc1nc(C)cc(Nc2ccc3nc(C)cc(N)c3c2)n1 (stereo not drawn) -3.04%, CC(C)(C)OC(=O)N1CCC(c2c(C(=O)N3CCN(c4ccccc4F)CC3)cnn2C(C)(C)C)CC1 -31.6%, COC(=O)c1cc2sc(C)cc2n1Cc1nc(-c2cccc(Br)c2)oc1C 1.6%, CCOC(=O)C1CCN(c2csc3ccc(C)cc3c2=O)CC1 -21.5%, COc1ccc(N2C(=O)CS(=O)(=O)C23C(=O)N(Cc2ccccc2)c2ccccc23)cc1 (stereo not drawn) -23.7%, COc1cccc(-c2nc(S(=O)(=O)c3ccc(C)cc3)c(NCc3ccccc3)o2)c1 -3.86%, CCN1CCN(c2cc(C)c3cc(NC(=O)c4cc(OC)c(OC)c(OC)c4)ccc3n2)CC1 -13.4%, CCOc1ccc(-c2nc(CSCC(=O)NCCc3ccccc3)c(C)o2)cc1 -49.5%, Clc1cccc(N2CCN(c3nc4ccccc4c4nc(-c5ccccc5)nn34)CC2)c1 -5.02%, CCc1ccc2oc(C(=O)N(Cc3cccc(Cl)c3)Cc3ccco3)c(C)c2c1 -25.8%, Cc1cc(C)cc(NC(=O)Cn2c(=O)n(CCC(C)C)c(=O)c3cccnc32)c1 -15.1%, Cn1c(=O)cc(SCC(=O)NCCc2ccc(Cl)cc2)c2cc(Cl)ccc21 -19.1%, COc1cccc(CNC(=O)CCCn2c(=O)c3cccn3c3ccc(F)cc32)c1OC -11.3%, COc1ccc(-c2cc(C(C)=O)c(C)n2CCC(=O)Nc2cccc(C)c2C)cc1 -16.4%, O=C(Cn1c2ncccc2c(=O)n1-c1ccccc1)Nc1cccc(C(F)(F)F)c1 -23.1%, O=C(CSc1nc2ccccc2c2nc(-c3ccccc3)nn12)Nc1ccc(F)cc1 2.85%
